# ± gives the standard deviation of the averaged measurements. Some of the results follow.
# Test system: PfAP2-G AP2 domain (GST-tagged)
# Assay: gcPBM binding intensity (ln(normalized median fluorescence intensity)); higher = stronger DNA binding
# Outline: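 DNA-binding domains from P. falciparum, fused to GST and produced in E. coli, were put on an Agilent 4 × 180k double-stranded probe array for 1 h in 1× PBS holding 1% milk, 0.2 mg/ml BSA, 0.5% salmon testes DNA and 0.03% Triton X-100. Probes were primer-extended, 36 bp long and drawn from intergenic genomic regions, with negative controls included. After Alexa488 anti-GST antibody detection and a 488 nm scan, binding intensity was set as the highest Masliner-normalised natural-log median intensity across replicate spots of either probe orientation.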
row,Sequence,gcPBM binding intensity (ln)
1,AGGATACACGGACACACACACATATAGATTTATATA [CACACA_site6552],11.2 ± 0.78
2,TTTTTATTTTTTTTATGTACACAAATGATATACATA [XGTACX_site5910],11.4 ± 0.73
3,TTTCTTTTTTTTTTTTTTTCTGGCTTTTTCTCTTTT [TGCATGCA_negctrl_site599],9.6 ± 0.085
4,TATATTACTTAAAATACACACCATGGAAAAGTTTTA [CACACA_site5443],10.1 ± 0.17
5,ATTATTTTTCTATGTGTGCACGTGTGGAATGTGTCT [GTGCAC_site9507],10.8 ± 0.51
6,TTCTGAACAAAATTATATATTTATTTTTATTTTCAT [CACACA_negctrl_site422],9.54 ± 0.33
7,ATAAGATGATGGAACTGTAATATATATATATATATA [CACACA_negctrl_site839],9.88 ± 0.42
8,TTTAAGAGTTGCACACGTACAAAAAAAAAAAAAAAA [XGTACX_site7406],11.2 ± 1
9,TTGTATACATAAAATGGTACAGAATATATAATTCTA [XGTACX_site7236],10.8 ± 0.57
10,GTATACCAACATATTATACACACCTTTATATTTTTT [CACACA_site2153],10.09 ± 0.042
11,ATTTTTTTCTTTTCTTTTTTCTTTTTTTTTTTTGGT [CACACA_negctrl_site1146],9.72 ± 0.18
12,GTAATGAAACATTGCACACATATAATAATATAATAT [CACACA_site1422],10.06 ± 0.064
13,TTAATTAAAATTTATACATGCATAAAAGAAATACAC [TGCATGCA_site537],10.4 ± 0.48
14,ATTACATGTTACTTAACACACATCTGGTGAAATAAT [CACACA_site171],9.94 ± 0.15
15,TTTTTATATTCCCCCAGTACATATATAATAGTAGTA [XGTACX_site7927],11.3 ± 0.76
16,TTATACTGTTTCAGAAAAATAAAGAATGAAAGTATT [XGTACX_negctrl_site230],10 ± 0.18
17,TATTTTAATGAAGCATTTAAGGGAAAAAAAAAAAAA [TGCATGCA_negctrl_site606],9.71 ± 0.45
18,TGCAACAAAATAAACACACACACACCCCCACAAAAA [CACACA_site3388],11.1 ± 0.67
19,AATAAAAAAATAAAATGTACATACAAATAAATAAAT [XGTACX_site5153],11.1 ± 0.48
20,ATAATACAAAAAAAAAAAAAAAATAAAATAATAAAA [GTGCAC_negctrl_site722],9.52 ± 0.11
21,ATTTTTTCTGTCTTAATTGGACCCACTGCAAATGGG [CACACA_negctrl_site1158],10.9 ± 0.54
22,TATTTTTAAATATAAAGTACTTATATTAACTACGAA [XGTACX_site1524],11.2 ± 0.62

row,Sequence,gcPBM binding intensity (ln)
1,AAGTAATACAACACGCACATATATATATATATATAT [GTGCAC_negctrl_site89],10.4 ± 0.5
2,TACCTAAATAAATGGACACACACATATATATATATA [CACACA_site8407],10.8 ± 0.53
3,TTATAGCCTGTGAAGAGTACATTTTTATTTTTTATT [XGTACX_site4105],11.1 ± 0.7
4,TACAAAATATATATGACACACACAAAAAAAGTATAT [CACACA_site8455],10.27 ± 0.092
5,TATTTTTCCATTGGGGGTACATGTGTTATATTTATT [XGTACX_site5914],11.7 ± 0.88
6,AGACGAAAATAATAAAGTACTAAAAAAAAAAAAAAA [XGTACX_site927],10.9 ± 0.92
7,TTCATATATTTTAAAGCATGCATTCATCTTATAGTT [TGCATGCA_site800],9.67 ± 0.27
8,TTTACGCTATAGGAGAGTACTTATAAAATCCTGTGT [XGTACX_site2364],11 ± 0.66
9,ATATATATGCATATATGTACTTAAAATATAAAGGCA [XGTACX_site3256],11.2 ± 0.73
10,GAGAAAGATATATACACACACATAAATATGTACATA [CACACA_site6975],11.3 ± 0.81
11,GATATCAAATATAAATGTACAAATTATATATACATA [XGTACX_site3228],10.7 ± 0.47
12,TTCTTATTTATTTTCTTCTCCTTCCTCAAATTTTTT [GTGCAC_negctrl_site592],9.73 ± 0.11
13,AATTTGTTAATATTTTGTACACATAATATAAAAACA [XGTACX_site2224],11.3 ± 0.89
14,TTTCCCAAGCTTATTACACACAAGTAGAATAAGCTT [CACACA_site1561],9.9 ± 0.18
15,TATATAGGTAAAAAATGTACTTATATTGAATATATT [XGTACX_site4414],11.2 ± 0.71
16,TTTACAATATTAAAATGTACATATAAAATAAATAAA [XGTACX_site8367],11 ± 0.49
17,TTTACAATATAAAATACACACACACTAACATATATT [CACACA_site9231],10.01 ± 0.042
18,TATATAAATGTTATCACACACTCACGTTTGACAAAA [CACACA_site6468],10.1 ± 0.078
19,TTCCTCTTAATATGTGCACACTAAATTATAACCTAA [CACACA_site5751],10.6 ± 0.43
20,GAAGGAAATAATAGTAGTACAAATGGTAAGAAATAT [XGTACX_site5845],11.4 ± 0.88
21,ATACAATAAAATAAGTTTGAATAAAATTAAATATAT [CACACA_negctrl_site877],9.6 ± 0.16
22,TCCTTTTTTAAAAGTTGTACATTATTGTTATTTGTT [XGTACX_site4686],11.4 ± 0.84

# Reference: the supplement of paper PMC11417369
